{"source": "the supplement of paper PMC3334620", "note": "Over roughly 33,000 sequences, “E-score (-0.5 to 0.5)” has its median near -0.054; the highest 2% begin near 0.39. Some of the results follow."}
{"target": "Ylr278c (UniProt Q05854)", "test": "PBM E-score (8-mer binding enrichment) (E-score (-0.5 to 0.5)); higher = stronger / more preferred TF binding; most listed sequences are background and not binding sites", "conditions": "protein concentration: 200 nM; construct: GST-DNA-binding domain", "how_it_was_run": "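For each ungapped eight-base word taken together with its reverse complement, the Universal PBM Analysis Suite assigned an E-score. Binding data came from GST-tagged yeast transcription factors, applied at about 100-200 nM, on universal all-10-mer Agilent arrays made double-stranded by primer extension. Fluorescent anti-GST marked bound protein, and scans were normalised with masliner.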"}
{"sequence": "CACGCTCG", "PBM E-score": -0.0329}
{"sequence": "AGCGCCCC", "PBM E-score": 0.0403}
{"sequence": "ACCCGTCA", "PBM E-score": 0.0523}
{"sequence": "AGTGCAAA", "PBM E-score": -0.176}
{"sequence": "ATTATGAC", "PBM E-score": -0.109}
{"sequence": "CGGGACCC", "PBM E-score": 0.274}
{"sequence": "CTTGAGGA", "PBM E-score": 0.0479}
{"sequence": "AATGGGAC", "PBM E-score": -0.0985}
{"sequence": "CACGATCG", "PBM E-score": 0.0663}
{"sequence": "GTGAGCAC", "PBM E-score": -0.211}
{"sequence": "CAGGTGCA", "PBM E-score": -0.179}
{"sequence": "CAACATAA", "PBM E-score": -0.0229}
{"sequence": "CAAATCGG", "PBM E-score": 0.319}
{"sequence": "AGGGAATA", "PBM E-score": -0.0119}
{"sequence": "TATATATA", "PBM E-score": 0.162}
{"sequence": "ATGCATGG", "PBM E-score": 0.0517}
{"sequence": "AGACCTCC", "PBM E-score": 0.0925}
{"sequence": "ACGTACGC", "PBM E-score": -0.181}
{"sequence": "CAAGCATC", "PBM E-score": -0.0118}
{"sequence": "ATCTGGTA", "PBM E-score": -0.0599}
{"sequence": "GTAAGTTA", "PBM E-score": -0.0999}
{"sequence": "CGTTATTA", "PBM E-score": 0.08}
{"sequence": "ACAAGGAC", "PBM E-score": -0.287}
{"sequence": "CTCGTCTC", "PBM E-score": 0.0125}
{"sequence": "CTCTTCAG", "PBM E-score": -0.268}
{"sequence": "CCTACGGA", "PBM E-score": 0.202}
{"sequence": "GCCGTTTA", "PBM E-score": 0.124}
{"sequence": "CGTTTGTA", "PBM E-score": -0.0913}
{"sequence": "GAAGTGGC", "PBM E-score": -0.091}
{"sequence": "AGGCGCTG", "PBM E-score": 0.117}
{"sequence": "ATGTTCAC", "PBM E-score": -0.216}
{"sequence": "CCGACATC", "PBM E-score": 0.284}
{"sequence": "TATCCGCA", "PBM E-score": 0.271}
{"sequence": "GAGAATCA", "PBM E-score": -0.0154}
{"sequence": "ATTCCAGA", "PBM E-score": 0.0166}
{"sequence": "CATGGGGA", "PBM E-score": -0.0651}
{"sequence": "GATGTCAA", "PBM E-score": -0.13}
{"sequence": "CATGCTCC", "PBM E-score": 0.0684}
{"sequence": "AGTGCGGG", "PBM E-score": 0.258}
{"sequence": "AGAACAGA", "PBM E-score": -0.0019}
{"sequence": "CTTTTGAC", "PBM E-score": -0.262}
{"sequence": "CGACCAAG", "PBM E-score": -0.188}
{"sequence": "TGGAAAAA", "PBM E-score": 0.00585}
{"sequence": "AGTACTAG", "PBM E-score": -0.206}
{"sequence": "TAGAGCCA", "PBM E-score": -0.334}
{"sequence": "CATGAGTC", "PBM E-score": -0.228}
{"sequence": "AATGAATC", "PBM E-score": -0.211}
{"sequence": "CACTTCTG", "PBM E-score": -0.173}
{"sequence": "CATTTTTA", "PBM E-score": -0.0238}
{"sequence": "AGCTGCTA", "PBM E-score": -0.313}
{"sequence": "CACTAATC", "PBM E-score": 0.2}
{"sequence": "GCTACGAC", "PBM E-score": 0.0162}
{"sequence": "AACGACTC", "PBM E-score": -0.234}
{"sequence": "CAGCGCGC", "PBM E-score": 0.0979}
{"sequence": "ACCGGCAG", "PBM E-score": 0.211}
{"sequence": "CTGGAAAC", "PBM E-score": -0.177}
{"sequence": "GCTACACA", "PBM E-score": -0.217}
{"sequence": "CTACATTC", "PBM E-score": 0.0132}
{"sequence": "GGAAAACC", "PBM E-score": 0.166}
{"sequence": "GCCCGTCA", "PBM E-score": 0.127}
{"sequence": "CTATTCCC", "PBM E-score": 0.0244}
{"sequence": "ATTGGGAA", "PBM E-score": -0.0378}
{"sequence": "TGCTTTAA", "PBM E-score": -0.128}
{"sequence": "GACGTTCA", "PBM E-score": -0.0489}
{"sequence": "GCGGCCCA", "PBM E-score": 0.137}
{"sequence": "CCCTTACA", "PBM E-score": -0.0786}
{"sequence": "CCGAGTGC", "PBM E-score": 0.278}
{"sequence": "AATCCTGA", "PBM E-score": -0.137}
{"sequence": "CATGTTCA", "PBM E-score": -0.309}
{"sequence": "ATTAGTAA", "PBM E-score": 0.0338}
{"sequence": "ATCGTTCG", "PBM E-score": 0.0345}
{"sequence": "GAGCCCTA", "PBM E-score": -0.00115}
{"sequence": "CACGAATC", "PBM E-score": -0.0738}
{"sequence": "CGTATACA", "PBM E-score": -0.171}
{"sequence": "CATCCATC", "PBM E-score": 0.0088}
{"sequence": "GCGTCGAC", "PBM E-score": -0.0158}
{"sequence": "GTTCTTGA", "PBM E-score": -0.156}
{"sequence": "AGTGGGTG", "PBM E-score": -0.0443}
{"sequence": "AACCCTGG", "PBM E-score": -0.22}
{"sequence": "CCTTGACA", "PBM E-score": -0.233}
{"sequence": "CTTTTTGA", "PBM E-score": -0.147}
{"sequence": "ACATATCT", "PBM E-score": 0.0217}
{"sequence": "ACTTAGCC", "PBM E-score": -0.186}
{"sequence": "CGCTGTTA", "PBM E-score": 0.075}
{"sequence": "AATGTGTG", "PBM E-score": -0.07}
{"sequence": "GTGTCGAA", "PBM E-score": -0.112}
{"sequence": "AACAAAGG", "PBM E-score": -0.0718}
{"sequence": "CCGACTTA", "PBM E-score": 0.215}
{"sequence": "CCACCACA", "PBM E-score": 0.00265}
{"sequence": "ATTGTGTA", "PBM E-score": 0.00738}
{"sequence": "AGAGTCAG", "PBM E-score": -0.0739}
{"sequence": "AGCAGGAG", "PBM E-score": 0.0513}
{"sequence": "AACCTAAA", "PBM E-score": -0.0676}
{"sequence": "AGATGATA", "PBM E-score": 0.0211}
{"sequence": "CACACTTC", "PBM E-score": -0.0914}
{"sequence": "CATTGCCG", "PBM E-score": 0.169}
{"sequence": "AGTAGACA", "PBM E-score": 0.0993}
{"sequence": "CCCGTCAA", "PBM E-score": 0.16}
{"sequence": "AGGTACGA", "PBM E-score": -0.129}
{"sequence": "GAAGCCAC", "PBM E-score": 0.00034}
{"sequence": "AAACAGCT", "PBM E-score": -0.108}
{"sequence": "GAAGCAGA", "PBM E-score": -0.192}
{"sequence": "GATGAATA", "PBM E-score": -0.0352}
{"sequence": "AGTCCCAT", "PBM E-score": -0.0893}
{"sequence": "TCTGTCCA", "PBM E-score": 0.0679}
{"sequence": "GAACCCTA", "PBM E-score": -0.014}
{"sequence": "AGAGTTTC", "PBM E-score": -0.11}
{"sequence": "CAGGAGTA", "PBM E-score": -0.0482}
{"sequence": "CGGATTTC", "PBM E-score": 0.448}
{"sequence": "TCAGGGGA", "PBM E-score": -0.247}
{"sequence": "AAATCTCG", "PBM E-score": 0.11}
{"sequence": "CCCCGCAA", "PBM E-score": 0.225}
{"sequence": "CCACCTTC", "PBM E-score": -0.177}
{"sequence": "CAGTGAGG", "PBM E-score": -0.256}
{"sequence": "GGTTCGAA", "PBM E-score": 0.0257}
{"sequence": "CCTCTCAA", "PBM E-score": 0.0673}
{"sequence": "ACAAGCAG", "PBM E-score": -0.0116}
{"sequence": "CACTTGCG", "PBM E-score": -0.117}
{"sequence": "ATGTGCGC", "PBM E-score": 0.0456}
{"sequence": "CAGTGGAG", "PBM E-score": -0.0746}
{"sequence": "CGGCTTCA", "PBM E-score": 0.164}
{"sequence": "AGGCGTAG", "PBM E-score": -0.179}
{"sequence": "CGCTCGGC", "PBM E-score": 0.259}
{"sequence": "CCCGACCA", "PBM E-score": 0.266}
{"sequence": "GTCCGCAC", "PBM E-score": 0.308}
{"sequence": "ACGGACGT", "PBM E-score": 0.23}
{"sequence": "CAATTGCA", "PBM E-score": -0.11}
{"sequence": "GATGAGCA", "PBM E-score": -0.145}
{"sequence": "AATAGAAA", "PBM E-score": -0.0484}
{"sequence": "CACAAAGC", "PBM E-score": -0.122}
{"sequence": "TGCGGAAA", "PBM E-score": 0.334}
{"sequence": "CACTAGAG", "PBM E-score": -0.21}
{"sequence": "AGTCGCGG", "PBM E-score": 0.121}
{"sequence": "ACGTTACA", "PBM E-score": -0.406}
{"sequence": "AACAGCGG", "PBM E-score": 0.2}
{"sequence": "TCTCGAAA", "PBM E-score": -0.21}
{"sequence": "CGGGCTAG", "PBM E-score": 0.259}
{"sequence": "GGTGGAAC", "PBM E-score": -0.135}
{"sequence": "AAATTGTC", "PBM E-score": 0.0669}
{"sequence": "AAGTCCCG", "PBM E-score": 0.324}
{"sequence": "ACGAGAAA", "PBM E-score": -0.0602}
{"sequence": "AGCTTTGC", "PBM E-score": -0.045}
{"sequence": "AAGTTAAT", "PBM E-score": -0.144}
{"sequence": "ACATATCC", "PBM E-score": 0.148}
{"sequence": "GAGCCTCC", "PBM E-score": 0.0105}
{"sequence": "TAGATGCA", "PBM E-score": -0.179}
{"sequence": "ACTGTTCC", "PBM E-score": 0.0791}
{"sequence": "CCCTTCCA", "PBM E-score": -0.108}
{"sequence": "GATTGAAC", "PBM E-score": -0.0676}
{"sequence": "ACGATATC", "PBM E-score": -0.0815}
{"sequence": "ACCCAACT", "PBM E-score": -0.211}
{"sequence": "AACCCCGC", "PBM E-score": 0.41}
{"sequence": "AATGCTCG", "PBM E-score": -0.103}
{"sequence": "CAAAAACA", "PBM E-score": -0.174}
{"sequence": "AATTGTTA", "PBM E-score": -0.0746}
{"sequence": "CAATAAAC", "PBM E-score": 0.105}
{"sequence": "ACCGATCA", "PBM E-score": 0.171}
{"sequence": "ACTTTGCA", "PBM E-score": -0.121}
{"sequence": "TACTCAAA", "PBM E-score": -0.144}
{"sequence": "CCGTGTTC", "PBM E-score": 0.203}
{"sequence": "CCAGCCTA", "PBM E-score": -0.214}
{"sequence": "ATTGGTAC", "PBM E-score": 0.0452}
{"sequence": "TACATGCA", "PBM E-score": -0.0669}
{"sequence": "AACGAATC", "PBM E-score": 0.0405}
{"sequence": "GATTAGAC", "PBM E-score": -0.107}
{"sequence": "GCACATGC", "PBM E-score": 0.044}
{"sequence": "GGTGCTAC", "PBM E-score": -0.0466}
{"sequence": "CCGGATTA", "PBM E-score": 0.455}
{"sequence": "AGCGGACC", "PBM E-score": 0.252}
{"sequence": "ATACTCAC", "PBM E-score": -0.149}
{"sequence": "CGTACATC", "PBM E-score": -0.0477}
{"sequence": "ATGAGGGG", "PBM E-score": -0.099}
